Results: the RNAGym collection of RNA variant scans (doi:10.1093/nar/gkz1192)
The source gives no read counts; variants with many changes may rest on few reads.

B1: CPEB3 Ribozyme (parent)
chain: UAACAGGGGGCCACAGCAGAAGCGUUCACGUCGCAGCCCCUGUCAGAUUCUGGUGAAUCUGCGAAUUCUGCUGUAUAUCUC

Variants of: B1
Experiment: self-cleavage, relative activity (ratio to wild type); higher = more cleavage; in vitro, sequencing
Method in brief: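 Barcoded CPEB3 ribozyme mutants, produced by rounds of error-prone PCR, self-cleaved while being transcribed with T7 RNA polymerase for 5 hours at 37°C and during a subsequent 15 min DNase I step before EDTA was added. Sequencing of template-switched cDNA on Illumina gave cleaved and total reads, and DNA sequencing assigned barcodes to variants. Each variant's relative activity is its cleaved/total read fraction divided by the unmutated ribozyme's fraction, averaged across three batches. A variant needed a minimum of 5 reads.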

Variant | self-cleavage
UAACAGAGGGCCACAGCAUAAGCGUUCACGUCGCAGCCCCUGUCAGAUUCUGGUGAAUCUGCGAAUUCCGCUGUAUAUCUC [G7A G19U U69C] | 0.05
UAACAGAGGGCCACAGCAGAAGCGUUCACGUCGCAGCCCCAGUCAGAUCCUGGUGAAUCUGCGAAUUCUGCUGUAUAUCUC [G7A U41A U49C] | 0.05
UAACAGAGGGCCACAGCAGAAGCAUCCUCGUCGCAGCCCCUGUCAGAUUCUGGUGAAUCUGCGAAUUCUGCUGUAUAUCUC [G7A G24A U26C A28U] | 0.3
UAACAGAGGGCCACAGCAGAAGCGUUCACGUCGCAUCCCCUGUCGGGUUCUGGUGAAUCUGCGAAUUCUGCUGUAUAUCUC [G7A G36U A45G A47G] | 0.11
UAACAGAGGGCCACAGCAGAAGCGUUCACGUCGCAGCCCCUGUCAGAUUCUGUUGAAUCUGCGAGUUCUGCUGUAUAUCUC [G7A G53U A65G] | 0.01
UAACAGAGGGCCACAGCAGAAGCAUUCACGUCGCAGCCCCUGUCAGAUUCUGGUGAAUCUGCGGAUUCUGCUGUACAUCUC [G7A G24A A64G U76C] | 0.17
UAACAGAGGGCCACAGCAGAAGCGUUCACGCCGCAGCCCCUGUCAGAAUCUGGAGAAUCUGCGAAUUCUGCUGUAUAUCUC [G7A U31C U48A U54A] | 0.21
UAACAGAGGGCCACAGCAGAAGCGCUCACGUCGCAGCCCCUGUCAGAUUCUGGUGAAUCCGCGGAGUCUGCUGUAUAUCCC [G7A U25C U60C A64G U66G U80C] | 0.06
UAACAGAGGGCCACAGCAGAAGCGUCCACGUCGCAGCCCCUGUCAGAUUCUGGUGAAUCUGCGAAUUCUGCUGUAUACCUC [G7A U26C U78C] | 0.08
UAACAGAGGGCCACAGCAGAAGCGCUCACGCCGCUGCCCCUGUCAGAUUCUGGUGAAUCUGCGAAUUCUGCUGUAUAUCUC [G7A U25C U31C A35U] | 0.06
UAACAGAGGGCCACAGCAGAAGCGUCCACGUCGCAGCCCCUGUCAGGUUCUGGUGAAUCUGCGAAUUCUGCUGUACAUCUC [G7A U26C A47G U76C] | 0.24
UAACAGAGGGCCACAGCAGAAGCGUUCACUUCGCAGCCCCUGUCAGAUUCCGGUGAAUCUGCGAAUUCUGCUGUAUAUCUC [G7A G30U U51C] | 0.05
UAACAGAGGGCCACAGCAGAAGCGAUCGCGUCGCAGCCCCAGCCAGAUUCUGGUGAAUCUGCGAAUUCUGCUGUAUAUCUC [G7A U25A A28G U41A U43C] | 0.06
UAACAGAGGGCCACAGCAGAAGCGGCCACGUCGCAGCCCCUGUCAGAUUCUGGUGAAUCUGCGAAUACUGCUGUAUAUCUC [G7A U25G U26C U67A] | 0.25
UAACAGAGGGCCACAACAGAAGCGUUCACGCCGCAGCCCCCGUCAGAUUCUGGUGAAUCUGCGAAUUCUGCUGUAUACCUC [G7A G16A U31C U41C U78C] | 0.06
UAACAGAGGGCCACAGCAGAAGCAUUCACGUCGCAGCCCCUGUCAGAUUCUGGUGAAACUGCGAAUUCUGCUGUAUGUCUC [G7A G24A U58A A77G] | 0.08
UAACAGAGGGCCACAGCAGAAGCGCUCACGUCGCAGCCCCUGUCAGAUUCAGGUGAAUCUGCGAAUUCUGCUGUAUAUCUC [G7A U25C U51A] | 0.05

Variant | self-cleavage
UAACAGAGGGCCACAGCAGAAGCGCUCACGUCGCAGCCCUAGUCAGAUUCUGGUGAAUCUGCGAAUUCUGCUGUAUGUCUC [G7A U25C C40U U41A A77G] | 0.04
UAACAGAGGGCCACAGCAGAAGCGUCCACGCCGCAGCCCCUGUCAGAUUCUGGUGAAUCUGCGAAUUCUGCUGAAUUUCUC [G7A U26C U31C U74A A77U] | 0.05
UAACAGAGGGCCACAUCAGAAGCGUUCACGUCGCAGCCCCUGUCAGAUUCUGGUGAAUCUGCGAAUUCUGCAGUAUAUCUC [G7A G16U U72A] | 0.14
UAACAGAGGGCCACAGCAGAAGCUUUCACGUCGCAGCCCCUGUCAGAUUCUGGCGAAUCUGCGAAUUCUGAUGUAUAUCUC [G7A G24U U54C C71A] | 0.1
UAACAGAGGGCCACAGCAGAAGCGCUCACGCCGCAGCCCCUGUCAGAUUCUGGUGAAUCUGCGAAUUCUGCUGUAUAUCUA [G7A U25C U31C C81A] | 0.16
UAACAGAGGGCCACAGCAGAAGCGUUCACGACGCAGCCCCCGUCAGAUUCUGGUGAAUCUGCGAAUUCUGCUGUAUAUCUC [G7A U31A U41C] | 0.25
UAACAGAGGGCCACAGCAGAAGCGAUCACGUCGCAGCCACUGUCAGAUUCUGGUGAGUCUGCGAAUUCUGCUGUAUAUCUC [G7A U25A C39A A57G] | 0.07
UAACAGAGGGCCACAGCAGAAGCGUCCACGUCGCAGCCCCUGUCAGAUUCUGGUGAAUCUGCGAAUUCUUCUGUAUAUCUC [G7A U26C G70U] | 0.21
UAACAGAGGGCCACAGCAGAAGCGUUCACGUCGCAGCCCCUGUCAGAUUCUAGUGAAUCCGCGAAUUCUGCUGUAUAUCUC [G7A G52A U60C] | 0.07
UAACAGAGGGCCACAGCAGAAGCGUUCACGUCGCAGCCCCAGUCAGAUUCUGGAGAAUCUGCGAAUUCUGCUGUAUAUCUC [G7A U41A U54A] | 0.06
UAACAGAGGGCCACAGCAGAAGCGAUCACGUCGCAGCCCCUGUCAGAUUCUGGUGAAUCUGCGAAUUCUGCUGAAUAUCUC [G7A U25A U74A] | 0.07
UAACAGAGGGCCACAGCAGAAGCGUCCACGUCGCAGCCCCGGUCAGAUUCUGGUGGAUCUGCGAAUUCUGCUGUAUAUCUC [G7A U26C U41G A56G] | 0.06
UAACAGAGGGCCACAGCAGAAGCGUACACGUCGCAGCCCCUGUCAGAUUCUGGUGUAUCUGCGAGUUCUGCCGUACAUCUC [G7A U26A A56U A65G U72C U76C] | 0.05
UAACAGAGGGCCACAGCAGAAGCGUUCACGCGGCAGCCCCUGUCAGAUUCUGGUGAAUCUGCGAAUUCCGCUGUAUAUCUC [G7A U31C C32G U69C] | 0.13
UAACAGAGGGCCACAGCAGAAGCGCUCACGUCGCAGCCCCUGUCAGAUUCUGGUGAAUCUGCGAAUUCUGCCGUACAUCUC [G7A U25C U72C U76C] | 0.06
UAACAGAGGGCCACAGCAGAAGCGUCCACGUCGCAGCCCCCGUCAGAUUCCGGUGAAUCUGCGAAUUCUGCUGUAUAUCUC [G7A U26C U41C U51C] | 0.07
UAACAGAGGGCCACAGCAGAAGCGUCCGAGUCGCAGCCCCUGUCAGAAUCUGGUGAAUCUGCGAAUUCUGCUGUAUAUCUC [G7A U26C A28G C29A U48A] | 0.23
